Data from PubChem BioAssay AID1347417 (National Center for Advancing Translational Sciences (NCATS), 2020).
Hit rate of the full screen: of about 120,000 compounds, about 5,300 (4.4%) were called active. Inconclusive means that the source gave no clear call. Such entries were picked first, then a sample of the others. Calls come from the whole dose curve; as a rule, active = well fitted inhibition curve with a large enough effect; inconclusive = small, poorly fitted or top-dose-only effect; inactive = no such curve, though single readings can be large or run the other way. Potencies of inconclusive entries are doubtful fits and often do not repeat.

assay: qHTS Primary assay for Inhibitors of Plasmodium falciparum Dd2 growth in vitro; note: nearly all actives have a fitted effect of over 65% in size;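 for activity, negative = inhibition: plate controls were DMSO vehicle for no effect and reference drug for full effect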; settings: P. falciparum Dd2 growth, SYBR Green, 72 h; activity, negative = inhibition: at 28.9 µM (top of the series) unless noted; series mostly up to 28.9 µM
How it was run: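 Infected erythrocytes (Dd2, 0.3% parasitemia, 2.5% hematocrit final) are added to compound in RPMI-1640/Albumax II medium, grown 72 h at 37C in low oxygen, then lysed with saponin/Triton-X containing SYBR Green and read by fluorescence.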
Potency is the fitted concentration of half-maximal effect; tags give direction and shape of the fitted curve.

| SMILES | Potency | activity, negative = inhibition | outcome |
| --- | --- | --- | --- |
| O=C(Nc1cc(Cl)ccc1O)c1cc2nc(-c3ccc4c(c3)OCO4)cc(C(F)(F)F)n2n1 | active: 1.58 µM |  |  |
| CCc1ccccc1NC(=O)COC(=O)c1cn(CC)c2nc(C)ccc2c1=O | inactive |  |  |
| COc1cc2c(cc1CCc1ccccc1)N(C(=O)C(C)C)CC21CCN(C(C)=O)CC1 | inconclusive: 2.82 µM [inhibitor, partial curve, poor fit] |  |  |
| CC(=O)NCC(=O)N1Cc2ccccc2CC2(CCN(Cc3ccccc3)C2)C1 (centres undefined) | inactive |  |  |
| COc1ccc(-c2noc([C@@H]3CCCN3C(=O)c3ccc(F)c(Cl)c3)n2)cc1OC | inconclusive: 20 µM [inhibitor, single point] |  |  |
| CC(C)N1CC2CCC(C1)N2Cc1cccc(-c2cccs2)c1 | inconclusive: 11.2 µM [inhibitor, partial curve, poor fit] |  |  |
| CCc1ccc(C(=O)c2cn(Cc3ccccc3)c3cc(OC)c(OC)cc3c2=O)cc1 | inconclusive: 15.8 µM [inhibitor, partial curve, poor fit] |  |  |
| CCc1ccc(-n2nc(C)c3c(C)cc(=O)n(CC(=O)N(CC)Cc4ccccc4)c32)cc1 | active: 8.91 µM |  |  |
| CCc1noc(-c2cccn3c(CNC(=O)c4ccco4)nnc23)n1 | inconclusive: 3.16 µM [inhibitor, partial curve, poor fit] |  |  |
| CCCCCNc1nc2c(-c3ccccc3)nnn2c2ccccc12 | inconclusive: 1 µM [inhibitor, full curve] |  |  |
| Cc1onc(-c2ccccc2)c1C(=O)N(C)C1CCCN(C2Cc3ccccc3C2)C1 (centres undefined) | inconclusive: 10 µM [inhibitor, single point] |  |  |
| CC(C)(N)C(=O)NC1CCCN(C2Cc3ccccc3C2)C1 (centres undefined) | inconclusive: 10 µM [inhibitor, single point] |  |  |
| CN(CC(=O)N1CCC(C)(c2noc(C3CC3)n2)CC1)S(=O)(=O)c1cccs1 | inactive |  |  |
| O=C(c1ccco1)N1CCN(C(=O)C2NCCc3[nH]cnc32)CC1 (centres undefined) | inactive |  |  |
| CNC(=O)[C@@H](c1ccc(OC)cc1)N1CCC[C@H]1C(=O)NCCN1CCOCC1 | inactive |  |  |
| Cc1ccc(CNC(=O)N2c3ccccc3CC2c2nc(C3CC3)no2)cc1 (centres undefined) |  | inactive: 6.52% [at 5.79 µM] |  |
| CC(C)c1nc2c(c(-c3ccc(O)cc3)n1)CN(Cc1ccc(C(F)(F)F)cc1)CC2 | inconclusive: 3.98 µM [inhibitor, partial curve, poor fit] |  |  |
| O=C(CSCc1ccc(F)cc1)N1CCc2c([nH]c3ccccc23)C1c1ccccc1 (centres undefined) | inconclusive: 10 µM [inhibitor, single point] |  |  |
| COc1ccc(-c2cc(N3CCN(C(=O)c4ccc(F)cc4F)CC3)n[nH]2)cc1 | inactive |  |  |
| Cc1nc(-c2cccc(Cl)c2)n(CC(=O)Nc2ccc(C(F)(F)F)cc2)c(=O)c1CCO | inconclusive: 0.891 µM [inhibitor, full curve, poor fit] |  |  |
| COc1ccc(C)cc1NC(=O)c1cc(S(=O)(=O)NCCC2=CCCCC2)ccc1F | inconclusive: 17.8 µM [inhibitor, single point] |  |  |
| O=C(c1ccccc1)N1Cc2ccccc2CC2(CCN(Cc3ccc(O)cc3)CC2)C1 | inconclusive: 15.8 µM [inhibitor, partial curve, poor fit] |  |  |

| SMILES | Potency | activity, negative = inhibition | outcome |
| --- | --- | --- | --- |
| COc1cccc(NC(=O)Nc2cc(-c3cn4cccnc4n3)ccc2OC)c1 | inactive |  |  |
| CCc1nnc(CN2CCC(C(=O)Nc3cccc(-c4ccco4)c3)CC2)o1 | inconclusive: 10 µM [inhibitor, single point] |  |  |
| COc1cc2c(cc1OC)C(C[C@H]1CN(S(=O)(=O)c3ccc(Cl)cc3)CC[C@H]1CC(=O)O)=NCC2 | inconclusive: 2.82 µM [inhibitor, partial curve, poor fit] |  |  |
| O=C(Cc1ccc(F)cc1)N1CCC2(CC1)CCN(Cc1cccs1)c1ccccc1O2 | inconclusive: 5.01 µM [inhibitor, partial curve, poor fit] |  |  |
| Cc1ccccc1CSCc1ccc(C(=O)NCCc2ccccc2)o1 | inactive |  |  |
| COc1cccc(NC(=O)c2oc3ccc(S(=O)(=O)N4CCC5(CC4)OCCO5)cc3c2C)c1 | inconclusive: 12.6 µM [inhibitor, single point] |  |  |
| C[C@@]12CO[C@@H](CNC(=O)C3CCCC3)O[C@@H]1CC[C@]1(C)[C@@H]2CC[C@@H](O)[C@H]1CC(=O)NCc1ccc(F)cc1 | inconclusive: 7.94 µM [inhibitor, single point] |  |  |
| c1ccc2c(CN3CC(Oc4ccc5c(c4)OCO5)C3)cccc2c1 | inactive |  |  |
| CN(C)c1cc(N2CCCC(NC(=O)c3ccoc3)C2)ncn1 (centres undefined) |  |  | inactive [at 5.79 µM] |
| O=C1CN(Cc2ccc(-c3cc(F)cc(F)c3)cc2)CCN1c1nccc(Cl)n1 | inconclusive: 7.08 µM [inhibitor, partial curve] |  |  |
| Cn1c(=O)c2c(nc(NCc3ccccc3)n2Cc2ccc(Cl)c(Cl)c2)n(C)c1=O | inconclusive: 7.94 µM [inhibitor, partial curve] |  |  |
| COc1cccc(O)c1CN1CCCC12Cc1ccccc1CNC2=O (centres undefined) | inconclusive: 8.91 µM [inhibitor, single point] |  |  |
| CC(C)c1noc([C@H]2C[C@@H]3C(=O)NCCCCCCN(C(=O)Cc4ccccc4)[C@@H]3C2)n1 | inactive |  |  |
| COc1ccc(-c2noc(CSc3nnc(C)n3-c3ccc(C)cc3)n2)cc1 | inconclusive: 11.2 µM [inhibitor, single point] |  |  |
| CC(=O)c1ccc(NC(=O)CN2C(=O)NC3(CCC(C)CC3)C2=O)cc1 (centres undefined) | inconclusive: 2.24 µM [inhibitor, full curve, poor fit] |  |  |
| O=C(c1ccc(F)cc1)N1c2ncnn2C2(CCCCC2)[C@@H]2CCCC[C@@H]21 | inconclusive: 20 µM [inhibitor, single point] |  |  |
| O=C([C@@H]1C[C@H](F)CN1S(=O)(=O)c1cccc(F)c1)N1CCCCC1 | inactive |  |  |
| CCN1C(=O)Cc2cc(C(=O)Nc3ccccc3)ccc21 | inconclusive: 8.91 µM [inhibitor, partial curve, poor fit] |  |  |
| Cc1ccccc1C(=O)NCc1ccc2c(c1)CCN2C(=O)c1ccccc1 | inconclusive: 11.2 µM [inhibitor, partial curve, poor fit] |  |  |
| COc1ccc(NC(=O)c2ccc3c(c2)N(C(=O)c2ccc(F)cc2)CC3)cc1 | inconclusive: 17.8 µM [inhibitor, single point] |  |  |
| CCOC(=O)N1CCC(NC(=O)c2cnn(-c3cccc(C)c3)c2C2CCN(C(=O)OC(C)(C)C)CC2)CC1 | inconclusive: 8.91 µM [inhibitor, partial curve] |  |  |
| Cc1cnc(C(=O)N2CCCCCCNC(=O)[C@@H]3C[C@@H](C(=O)N4CCc5ccccc5C4)C[C@@H]32)cn1 | inactive |  |  |

| SMILES | Potency | activity, negative = inhibition | outcome |
| --- | --- | --- | --- |
| COc1ccccc1CNc1nc(-c2ccco2)nn1S(=O)(=O)c1ccc(C)cc1 | inconclusive: 8.91 µM [inhibitor, partial curve, poor fit] |  |  |
| Clc1ccc(CN2CCc3nc(Nc4ccc5c(c4)OCCO5)ncc3C2)cc1 | inactive |  |  |
| O=C(CC1COCCN1)N1CCN(C/C=C/c2ccccc2)CC1 (centres undefined) | inconclusive: 20 µM [inhibitor, single point] |  |  |
| CCOc1ccccc1CN(CCc1ccc2c(c1)OCO2)Cc1cc(OC)c(OC)cc1OC | active: 3.98 µM |  |  |
| CCc1ocnc1C(=O)N1CCCC(CNC(=O)c2n[nH]c3ccccc23)C1 (centres undefined) | inactive |  |  |
| O=C1CCN(C(=O)C2(c3ccccc3)CC2)CCCC(C(=O)NCc2ccccc2)CCN1 (centres undefined) | active: 0.398 µM |  |  |
| CC(C)c1nn2c(=O)cc(COC(=O)c3ccc(NC(=O)c4ccccc4Cl)cc3)nc2s1 | inactive |  |  |
| COCC(=O)N1CC(C(=O)NCc2cccc(F)c2)CC(c2ccc(OC)c(OC)c2)C1 (centres undefined) | inactive |  |  |
| CCOc1ccc(NC(=O)c2oc3ccccc3c2NC(=O)Cc2ccc(OC)c(OC)c2)cc1 | inconclusive: 12.6 µM [inhibitor, single point] |  |  |
| O=C(Nc1ccc(O)c(-c2nc3ccccc3o2)c1)c1cccs1 | inactive |  |  |
| Cc1ccc(C)c(CN2C(=O)c3ccccc3Sc3ccc(C(=O)NCCCOC(C)C)cc32)c1 | inactive |  |  |
| Fc1cc(Cl)ccc1C1c2nc[nH]c2CCN1Cc1ccccn1 (centres undefined) | inconclusive: 17.8 µM [inhibitor, single point] |  |  |
| O=C(COc1ccc(F)cc1)N1CCc2nn(Cc3ccccc3)c(=O)n2CC1 | inactive |  |  |
| CC(CNC(=O)c1ccc(Cn2c(SCc3ccccc3)nc3cccnc32)cc1)c1ccccc1 (centres undefined) | inconclusive: 8.91 µM [inhibitor, partial curve] |  |  |
| Cc1ccc(OC2(C(=O)NC(C)c3nn[nH]n3)CCNCC2)cc1 (centres undefined) | inconclusive: 0.1 µM [inhibitor, full curve, poor fit] |  |  |
| COc1ccccc1CC(=O)N1CCCc2ncc(C(=O)Nc3cccnc3)cc21 | inconclusive: 4.47 µM [inhibitor, partial curve] |  |  |
| O=C(NC1CCN(c2cnn(Cc3ccccc3)c(=O)c2)CC1)c1ccoc1 | inconclusive: 7.94 µM [inhibitor, partial curve] |  |  |
| Cc1ccc2nc(CO[C@H]3CN(Cc4ccc(C(=O)O)cc4)C[C@H]3F)[nH]c2c1 | inconclusive: 1 µM [inhibitor, partial curve, poor fit] |  |  |
| CCOC(=O)c1ccc(NC(=O)c2ccc3c(c2)CCN3S(=O)(=O)c2ccc(Cl)cc2)cc1 | inconclusive: 17.8 µM [inhibitor, single point] |  |  |
| CCC1(N2CCN(C(=O)Nc3cc(C)ccc3OC)CC2)CCN(C(=O)C(C)C)C1 (centres undefined) | inconclusive: 3.55 µM [inhibitor, partial curve] |  |  |
